Measurements reported in the supplement of paper PMC8728848.
Some of the results follow.

How the values were obtained:
Experiment in all cases: glycan array binding signal (z-score within array); higher = stronger binding
Details in all cases: glycan notation: IUPAC condensed, linker removed
[1] = biological target: Gal(b1-4)GlcNAc(b1-3)Gal(b1-4)GlcNAc(b1-3)[Gal(b1-4)GlcNAc(b1-3)Gal(b1-4)GlcNAc(b1-6)]GalNAc
How it was run: (§1)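 Columns mapping to the same glycan were averaged after glycan names were converted to IUPAC-condensed notation. The data come from 3228 arrays in the Consortium for Functional Glycomics database, limited to those with an available protein sequence. Binding is reported as a within-array Z-score averaged across arrays of one protein sequence and across linkers.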

[2] = biological target: Gal(b1-4)GlcNAc(b1-3)Gal(b1-4)GlcNAc(b1-6)[Gal(b1-3)]GalNAc
How it was run: as §1

[3] = biological target: Gal(b1-4)GlcNAc(b1-3)Gal(b1-4)[Fuc(a1-3)]GlcNAc(b1-3)Gal(b1-4)[Fuc(a1-3)]GlcNAc
How it was run: as §1

[4] = biological target: Gal(b1-4)GlcNAc(b1-3)GalNAc
How it was run: as §1

[5] = biological target: Gal(b1-4)GlcNAc(b1-3)[Fuc(a1-3)GlcNAc(b1-6)]Gal(b1-4)Glc
How it was run: as §1

[6] = biological target: Gal(b1-4)GlcNAc(b1-3)[Gal(b1-4)GlcNAc(b1-6)]Gal(b1-4)GlcNAc
How it was run: as §1

[7] = biological target: Gal(b1-4)GlcNAc(b1-3)[Gal(b1-4)GlcNAc(b1-6)]GalNAc
How it was run: as §1

[8] = biological target: Gal(b1-4)GlcNAc(b1-3)[GlcNAc(b1-6)]Gal(b1-4)GlcNAc
How it was run: as §1

[9] = biological target: Gal(b1-4)GlcNAc(b1-6)Gal(b1-4)GlcNAc
How it was run: as §1

[10] = biological target: Gal(b1-4)GlcNAc(b1-6)Gal(b1-4)GlcNAc(b1-6)GalNAc
How it was run: as §1

[11] = biological target: Gal(b1-4)GlcNAc(b1-6)GalNAc
How it was run: as §1

[12] = biological target: Gal(b1-4)GlcNAc(b1-6)[Gal(b1-3)]GalNAc
How it was run: as §1

[13] = biological target: Gal(b1-4)GlcNAc(b1-6)[Gal(b1-4)GlcNAc(b1-3)]GalNAc
How it was run: as §1

Gal(b1-4)GlcNAc6P = biological target: Gal(b1-4)GlcNAc6P
How it was run: as §1

Gal(b1-6)Gal = biological target: Gal(b1-6)Gal
How it was run: as §1

Gal3S(b1-3)GalNAc = biological target: Gal3S(b1-3)GalNAc
How it was run: as §1

Gal3S(b1-3)GlcNAc = biological target: Gal3S(b1-3)GlcNAc
How it was run: as §1

[14] = biological target: Gal3S(b1-3)[Fuc(a1-4)]GlcNAc
How it was run: as §1

Gal3S(b1-4)Glc = biological target: Gal3S(b1-4)Glc
How it was run: as §1

Gal3S(b1-4)Glc6S = biological target: Gal3S(b1-4)Glc6S
How it was run: as §1

Gal3S(b1-4)GlcNAc = biological target: Gal3S(b1-4)GlcNAc
How it was run: as §1

Gal3S(b1-4)GlcNAc6S = biological target: Gal3S(b1-4)GlcNAc6S
How it was run: as §1

[15] = biological target: Gal3S(b1-4)[Fuc(a1-3)]Glc
How it was run: as §1

[16] = biological target: Gal3S(b1-4)[Fuc(a1-3)]Glc6S
How it was run: as §1

[17] = biological target: Gal3S(b1-4)[Fuc(a1-3)]GlcNAc
How it was run: as §1

[18] = biological target: Gal3S(b1-4)[Fuc(a1-3)]GlcNAc6S
How it was run: as §1

Gal3S4S(b1-4)GlcNAc = biological target: Gal3S4S(b1-4)GlcNAc
How it was run: as §1

Gal3S6S(b1-4)GlcNAc = biological target: Gal3S6S(b1-4)GlcNAc
How it was run: as §1

Gal3S6S(b1-4)GlcNAc6S = biological target: Gal3S6S(b1-4)GlcNAc6S
How it was run: as §1

Gal4S(b1-4)GlcNAc = biological target: Gal4S(b1-4)GlcNAc
How it was run: as §1

Gal4S6S(b1-4)GlcNAc = biological target: Gal4S6S(b1-4)GlcNAc
How it was run: as §1

Gal6P(b1-4)GlcNAc = biological target: Gal6P(b1-4)GlcNAc
How it was run: as §1

Gal6S(b1-3)GlcNAc = biological target: Gal6S(b1-3)GlcNAc
How it was run: as §1

Gal6S(b1-3)GlcNAc6S = biological target: Gal6S(b1-3)GlcNAc6S
How it was run: as §1

Gal6S(b1-4)Glc = biological target: Gal6S(b1-4)Glc
How it was run: as §1

Gal6S(b1-4)Glc6S = biological target: Gal6S(b1-4)Glc6S
How it was run: as §1

Gal6S(b1-4)GlcNAc = biological target: Gal6S(b1-4)GlcNAc
How it was run: as §1

Gal6S(b1-4)GlcNAc6S = biological target: Gal6S(b1-4)GlcNAc6S
How it was run: as §1

GalNAc(a1-3)Gal = biological target: GalNAc(a1-3)Gal
How it was run: as §1

GalNAc(a1-3)GalNAc = biological target: GalNAc(a1-3)GalNAc
How it was run: as §1

[19] = biological target: GalNAc(a1-3)GalNAc(a1-3)Gal(a1-4)Gal(b1-4)GlcNAc
How it was run: as §1

[20] = biological target: GalNAc(a1-3)GalNAc(b1-3)Gal(a1-4)Gal(b1-4)Glc
How it was run: as §1

[21] = biological target: GalNAc(a1-3)GalNAc(b1-3)Gal(a1-4)Gal(b1-4)GlcNAc
How it was run: as §1

GalNAc(b1-3)Gal = biological target: GalNAc(b1-3)Gal
How it was run: as §1

[22] = biological target: GalNAc(b1-3)Gal(a1-4)Gal(b1-4)GlcNAc
How it was run: as §1

B1: GNA (Galanthus nivalis), P30617 (protein)
chain: MAKASLLILAAIFLGVITPSCLSDNILYSGETLSTGEFLNYGSFVFIMQEDCNLVLYDVDKPIWATNTGGLSRSCFLSMQTDGNLVVYNPSNKPIWASNTGGQNGNYVCILQKDRNVVIYGTDRWATGTHTGLVGIPASPPSEKYPTAGKIKLVTAK
glycan array binding signal (z-score) [1]: -0.06 | glycan array binding signal (z-score) [2]: -0.052 | glycan array binding signal (z-score) [3]: -0.249 | glycan array binding signal (z-score) [4]: -0.197 | glycan array binding signal (z-score) [5]: -0.161 | glycan array binding signal (z-score) [6]: -0.21 | glycan array binding signal (z-score) [7]: -0.206 | glycan array binding signal (z-score) [8]: -0.173 | glycan array binding signal (z-score) [9]: -0.108 | glycan array binding signal (z-score) [10]: 0.012 | glycan array binding signal (z-score) [11]: -0.162 | glycan array binding signal (z-score) [12]: -0.164 | glycan array binding signal (z-score) [13]: -0.158 | glycan array binding signal (z-score) (Gal(b1-4)GlcNAc6P): -0.176 | glycan array binding signal (z-score) (Gal(b1-6)Gal): -0.149 | glycan array binding signal (z-score) (Gal3S(b1-3)GalNAc): -0.141 | glycan array binding signal (z-score) (Gal3S(b1-3)GlcNAc): -0.112 | glycan array binding signal (z-score) [14]: -0.11 | glycan array binding signal (z-score) (Gal3S(b1-4)Glc): -0.156 | glycan array binding signal (z-score) (Gal3S(b1-4)Glc6S): -0.075 | glycan array binding signal (z-score) (Gal3S(b1-4)GlcNAc): -0.147 | glycan array binding signal (z-score) (Gal3S(b1-4)GlcNAc6S): 0.332 | glycan array binding signal (z-score) [15]: 0.166 | glycan array binding signal (z-score) [16]: -0.108 | glycan array binding signal (z-score) [17]: -0.145 | glycan array binding signal (z-score) [18]: -0.174 | glycan array binding signal (z-score) (Gal3S4S(b1-4)GlcNAc): -0.065 | glycan array binding signal (z-score) (Gal3S6S(b1-4)GlcNAc): -0.101 | glycan array binding signal (z-score) (Gal3S6S(b1-4)GlcNAc6S): 0.015 | glycan array binding signal (z-score) (Gal4S(b1-4)GlcNAc): -0.166 | glycan array binding signal (z-score) (Gal4S6S(b1-4)GlcNAc): -0.063 | glycan array binding signal (z-score) (Gal6P(b1-4)GlcNAc): -0.137 | glycan array binding signal (z-score) (Gal6S(b1-3)GlcNAc): -0.18 | glycan array binding signal (z-score) (Gal6S(b1-3)GlcNAc6S): -0.173 | glycan array binding signal (z-score) (Gal6S(b1-4)Glc): -0.09 | glycan array binding signal (z-score) (Gal6S(b1-4)Glc6S): 0.004 | glycan array binding signal (z-score) (Gal6S(b1-4)GlcNAc): -0.105 | glycan array binding signal (z-score) (Gal6S(b1-4)GlcNAc6S): 0.095 | glycan array binding signal (z-score) (GalNAc(a1-3)Gal): -0.223 | glycan array binding signal (z-score) (GalNAc(a1-3)GalNAc): -0.302 | glycan array binding signal (z-score) [19]: -0.172 | glycan array binding signal (z-score) [20]: -0.176 | glycan array binding signal (z-score) [21]: -0.173 | glycan array binding signal (z-score) (GalNAc(b1-3)Gal): -0.058 | glycan array binding signal (z-score) [22]: -0.073
